Laboratory results as given in PubChem BioAssay AID624417 (National Center for Advancing Translational Sciences (NCATS), 2012).
In all, about 410,000 compounds went through this assay and about 6,400 (1.6%) were called active. The inconclusive results got no clear call from the source; some entries with a clear call stand among them for comparison. The call rests on the fitted dose curve; in most records, active means well fitted inhibition curve with a large enough effect; inconclusive means small, poorly fitted or top-dose-only effect; inactive means no such curve, though single readings can be large or run the other way. Potencies of inconclusive entries are doubtful fits and often do not repeat.

Each compound was assayed against Glucagon-like peptide 1 receptor (Homo sapiens) (UniProt P43220) (assay: qHTS of GLP-1 Receptor Inverse Agonists (Inhibition Mode)). Details: HEK293 GLP-1R CRE-luciferase, luminescence, 24 h, GLP-1R form is constitutively active; activity change, negative = inhibition: at 38.3 µM (top of the series) unless noted.
Chain of UniProt P43220 (P43220 whole entry, looked up): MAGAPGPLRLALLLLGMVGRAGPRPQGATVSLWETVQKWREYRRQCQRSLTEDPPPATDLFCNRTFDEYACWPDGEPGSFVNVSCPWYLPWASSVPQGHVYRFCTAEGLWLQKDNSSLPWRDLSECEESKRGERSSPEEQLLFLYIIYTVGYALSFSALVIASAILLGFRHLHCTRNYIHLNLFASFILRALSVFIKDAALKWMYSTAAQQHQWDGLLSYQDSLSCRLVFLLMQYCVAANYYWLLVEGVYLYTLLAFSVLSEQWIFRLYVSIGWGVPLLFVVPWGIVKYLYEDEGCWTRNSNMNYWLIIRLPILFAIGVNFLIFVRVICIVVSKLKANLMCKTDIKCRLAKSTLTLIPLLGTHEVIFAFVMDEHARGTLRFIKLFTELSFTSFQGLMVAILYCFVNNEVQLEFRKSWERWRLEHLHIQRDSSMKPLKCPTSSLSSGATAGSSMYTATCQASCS
In short: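 Inverse agonism was detected as reduced cAMP-driven luciferase luminescence after 24 h compound treatment. The cells were HEK293 clones expressing constitutively active human GLP-1R with the reporter. Reporter-only and GPR119 cell lines served as counterscreen controls.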
Further: nearly all actives have a fitted effect of over 55% in size.
On the % scale 0 is the no-effect control and ±100 the full control effect; potency means the concentration at half of the fitted maximal effect; tags describe the fitted curve by direction and shape.

Potency, inconclusive:
CCS(=O)(=O)N1CCc2cc(C(=O)N3CCN(c4cccc(C(F)(F)F)c4)CC3)ccc21 28.2 µM [inhibitor, single point]
O=C(CCC(=O)Nc1ccc(F)cc1)N/N=C/c1ccc(Br)cc1 0.794 µM [inhibitor, full curve, poor fit]
Cn1cc(C(c2ccccc2OCC(=O)O)c2cn(C)c3ccccc23)c2ccccc21 3.55 µM [inhibitor, full curve, poor fit]
C#CCOCCOCCOCCNc1nc(N2CCN(C(=O)CCCCCCCCCCNC(=O)[C@H](CCCCN)n3cc(C[C@@H](C)CC)nn3)CC2)nc(N2CCN(C(=O)CCCCCCCCCCNC(=O)[C@H](CCCCN)n3cc(C[C@@H](C)CC)nn3)CC2)n1 12.6 µM [inhibitor, partial curve, poor fit]
CC1=NN(C(=O)COc2ccc(C)c(C)c2)C(O)(c2ccccc2)C1 (stereo unspecified) 10 µM [inhibitor, partial curve]
O=C(NOCc1ccccc1)c1ccc(Cl)cc1 12.6 µM [inhibitor, partial curve]
CCOc1ccccc1NC(=O)CN1C(=O)NC(Cc2c[nH]c3ccccc23)C1=O (stereo unspecified) 28.2 µM [inhibitor, single point]
CCC(C)(C)NC(=O)CCCSc1nc2ccccc2s1 28.2 µM [inhibitor, single point]
CCOc1ccc(C(=O)/C=C/c2cc(OC)c(OC)c(OC)c2)cc1 10 µM [inhibitor, partial curve, poor fit]
COc1cc(CCC(=O)Nc2ccc(Cl)c(C(F)(F)F)c2)cc(OC)c1OC 11.2 µM [inhibitor, partial curve, poor fit]
CCOc1ccc(-n2c(Cc3ccccc3)nnc2SCc2nc(-c3ccccc3C)no2)cc1 11.2 µM [inhibitor, single point]
O=C(Nc1ccc(Cl)cc1)Nc1cc(S(=O)(=O)N2CCOCC2)ccc1N1CCCC1 10 µM [inhibitor, partial curve, poor fit]
Cc1ccc2cc(CN(CCN3CCCC3)C(=O)Nc3ccccc3)c(=O)[nH]c2c1C 10 µM [inhibitor, single point]
CC(=O)Nc1ccc(S(=O)(=O)Nc2cccc(-c3ccc(N4CCC(C)CC4)nn3)c2)cc1 28.2 µM [inhibitor, single point]
COc1cccc(NC(=O)CN2C(=O)NC3(CCCCCC3)C2=O)c1 10 µM [inhibitor, partial curve, poor fit]
CCc1ccc(CN(C(=O)COc2c(C)cccc2C)C2CCS(=O)(=O)C2)cc1 (stereo unspecified) 8.91 µM [inhibitor, partial curve, poor fit]
Cc1ccc(CNC(=O)c2ccc(COc3ccccc3)cc2)cc1 11.2 µM [inhibitor, single point]
CC(=O)c1ccc(NC(=O)Nc2ccc(Cl)cc2)cc1 12.6 µM [inhibitor, single point]
CCc1ccc(NS(=O)(=O)c2cccc3nsnc23)cc1 12.6 µM [inhibitor, single point]
COc1cc2oc3ccccc3c2cc1N(CC(=O)N1CCCCC1)S(=O)(=O)c1ccc(C)cc1 11.2 µM [inhibitor, partial curve, poor fit]
CCC(CC)c1nnc(NC(=O)Cc2c[nH]c3ccccc23)s1 28.2 µM [inhibitor, single point]
COc1ccccc1Oc1nc2c(c(=O)n(C)c(=O)n2C)n1Cc1cccc(Br)c1 22.4 µM [inhibitor, single point]
O=C(OCC(=O)N1CCOCC1)c1ccccc1OCc1ccccc1Cl 8.91 µM [inhibitor, partial curve, poor fit]
C[C@H](NC(=O)C1CCN(S(=O)(=O)c2ccccc2)CC1)C(=O)NCc1ccc(Cl)c(Cl)c1 0.501 µM [inhibitor, full curve, poor fit]
COc1ccc(OC)c(NC(=S)N2CCC(C(O)(c3ccccc3)c3ccccc3)CC2)c1 20 µM [inhibitor, single point]
O=C(CSc1nnc(-c2ccccc2Cl)o1)Nc1ccccn1 8.91 µM [inhibitor, partial curve, poor fit]
Cc1ccc(C(c2nnnn2CCc2ccccc2)N2CCSCC2)cc1 (stereo unspecified) 20 µM [inhibitor, single point]
CC1(C(=O)NS(=O)(=O)c2ccccc2Cl)CCN1C(=O)C1(c2ccccc2)CCCC1 (stereo unspecified) 6.31 µM [inhibitor, partial curve, poor fit]
O=C(N/N=C/c1sc(N2CCOCC2)nc1-c1ccccc1)c1cccc(S(=O)(=O)N2CCOCC2)c1 28.2 µM [inhibitor, single point]
COc1cc(/C=C/C(=O)c2ccc(NS(=O)(=O)c3ccc(C)cc3)cc2)cc(OC)c1O 28.2 µM [inhibitor, single point]
CCOc1ccc(/C=C/C(O)=C2/C(=O)NC3(C)CC2c2ccccc2O3)cc1OC (stereo unspecified) 10 µM [inhibitor, single point]
COC(=O)CN1C(=O)Nc2ccc(Br)cc2C1c1ccccc1Cl (stereo unspecified) 10 µM [inhibitor, partial curve, poor fit]
COc1cccc(C(=O)NCC(=O)N/N=C/c2c(C)[nH]c3ccccc23)c1 11.2 µM [inhibitor, partial curve, poor fit]
CC(C)(C)c1ccc(C(=O)Nc2ccccc2C(=O)NCCN2CCOCC2)cc1 28.2 µM [inhibitor, single point]
Cc1noc(C)c1COC(=O)c1cccc(S(=O)(=O)N2CCCCCC2)c1 15.8 µM [inhibitor, partial curve, poor fit]
COc1ccc(CN2CCN(C(=O)C3CCC(CNS(=O)(=O)c4ccc(C)cc4)CC3)CC2)c(OC)c1OC (stereo unspecified) 28.2 µM [inhibitor, single point]
Cc1cc(NC(=O)COC(=O)[C@@H](NS(=O)(=O)c2ccc(Br)cc2)C(C)C)no1 20 µM [inhibitor, single point]
CCSC(=O)N=Nc1ccc(O)cc1 6.31 µM [inhibitor, partial curve, poor fit]
CC/C(=N\N=C1\SC(C)C(=O)N1Cc1ccco1)c1ccccc1 (stereo unspecified) 11.2 µM [inhibitor, partial curve, poor fit]
O=C(Nc1ccc2c(c1)oc1ccccc12)c1ccncc1 28.2 µM [inhibitor, single point]
O=C(Nc1ccc(Cl)c(Cl)c1)c1ccc2c(c1)OCO2 28.2 µM [inhibitor, single point]
O=C(NNS(=O)(=O)c1cccc(Cl)c1)c1cc(-c2ccc(F)cc2)nc2ccccc12 12.6 µM [inhibitor, partial curve, poor fit]
Cc1ccc(C(C(=O)NC2CCCCC2)N(C(=O)c2csnn2)C2CC2)o1 (stereo unspecified) 2.24 µM [inhibitor, full curve, poor fit]
CCOC(=O)C1CCN(c2ncnc3c2c(-c2ccccc2)cn3-c2ccc(C)cc2)CC1 1.26 µM [inhibitor, partial curve, poor fit]
Cc1nc2c(cnn2-c2ccccc2Cl)c(=O)n1-c1ccc(C(C)C)cc1 20 µM [inhibitor, partial curve, poor fit]
CCc1ccc(S(=O)(=O)c2nnn3c2nc(NCCc2ccccc2)c2sccc23)cc1 28.2 µM [inhibitor, single point]

Potency, active:
Cc1ccc(S(=O)(=O)N2[C@@H](c3ccc(C(C)(C)C)cc3)C(C(=O)O)=CC[C@H]2c2ccc(C(C)C)cc2)cc1 3.16 µM
CCN(CC)S(=O)(=O)c1cccc(NC(=O)CCNC(=O)NC23CC4CC(CC(C4)C2)C3)c1 10 µM
O=C(NC(=S)N1CCN(c2nc(-c3ccccc3)cs2)CC1)c1cccnc1 8.91 µM

Activity change, negative = inhibition, inactive:
COC(=O)c1nc(NC(=S)NC(=O)c2cccs2)sc1C -5.14%
COc1cc(-c2nc(-c3cccc(C)c3)no2)cc(OC)c1OC -0.0234%
C(=C\c1ccccc1)/C=N/Nc1nc2ccccc2[nH]1 -0.756%
CCOc1cc(-c2nc3ccccn3c2NCC2CCCO2)ccc1O (stereo unspecified) 2.12%
CCc1nc2sc3ccccc3c(=O)c2c(=O)n1Cc1ccco1 66.2%
O=C1C=CC(=O)N1c1ccc(O)cc1 -5.43%
CCOc1ccc(CCNC(=O)CCCc2nnc3n(CC(C)C)c(=O)c4sccc4n23)cc1 4.8%
CCOC(=O)c1cc(S(=O)(=O)Nc2ccc(OC)c(Cl)c2)[nH]n1 -27.3%
COC(=O)Nc1ccc(=O)n(Cc2c(Cl)cccc2Cl)c1 0%
COc1ccc(CCn2cc3c(c2-c2ccccc2Br)c(=O)n(C)c(=O)n3C)cc1OC 11.1%
O=C(Cc1ccc(S(=O)(=O)N2CCOCC2)s1)Nc1ccccc1N1CCCC1 12.8%
COc1cccc(/C=N/n2c(-c3n[nH]c4c3CCC4)n[nH]c2=S)c1O 3.39%
